From PubChem BioAssay AID1745845 (National Center for Advancing Translational Sciences (NCATS), 2022)
The whole screen tested about 360,000 compounds, of which about 2,600 (0.72%) were called active. This list was built around the results that the source calls inconclusive (neither active nor inactive); the mix of calls is not that of the screen. The call rests on the fitted dose curve; in most records, active means well fitted inhibition curve with a large enough effect; inconclusive means small, poorly fitted or top-dose-only effect; inactive means no such curve, though single readings can be large or run the other way. Potencies beside an inconclusive call are fits to weak or partial responses and may not hold up.

Assay: Primary qHTS for Inhibitors of ATXN expression; further: nearly all actives have a fitted effect of over 55% in size
Conditions: HEK-293 ATXN2-luciferase reporter, luminescence, 24 h; series mostly up to 57 µM
Outline: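 qHTS (up to 57 uM final) was run with 24 h compound exposure of reporter cells at 37 °C. Each well was multiplexed: SteadyGlo luminescence measured ATXN2-luciferase expression after a fluorogenic Gly-Phe-AFC viability readout (25 uM final).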
Potency means the concentration at half of the fitted maximal effect; tags describe the fitted curve by direction and shape.

SMILES	Potency
Cc1ccc(-c2cc(C(=O)NN=C3CCCC3)c3ccccc3n2)cc1	inactive
Cc1cc(N2CCN(c3nc(-c4ccccc4)cs3)CC2)c2ccccc2n1	inconclusive: 16.8 µM [inhibitor, partial curve, poor fit]
O=C(Nc1ccc(Cl)c(C(F)(F)F)c1)NC1CC2CCCC(C1)N2C1CC1 (stereo not given)	inconclusive: 39.8 µM [inhibitor, single point]
O=C(NCC1CCCN1S(=O)(=O)c1cccs1)C(=O)Nc1cccc(F)c1 (stereo not given)	inactive
CCCCCCCC#Cc1ccccc1/C=N/S(=O)c1ccc(C)cc1 (stereo not given)	inactive
Cc1ccc(OCc2ccc(-c3nc(C#N)c(NCc4cccnc4)o3)o2)cc1	inconclusive: 28.2 µM [inhibitor, partial curve]
CCc1nc(N2CCN(C(=O)c3ccccc3)CC2)c2c3c(sc2n1)CCCC3	inconclusive: 3.77 µM [inhibitor, partial curve, poor fit]
COc1ccccc1Nc1nc(N)nc(CSC(=S)N2CCCCC2C)n1 (stereo not given)	inactive
COc1cc(NC(=O)NC(C)c2c(-n3cccc3)sc3c2CCCC3)cc(OC)c1OC (stereo not given)	inconclusive: 39.8 µM [inhibitor, single point]
COc1cc(CNCc2c[nH]c3ccccc23)cc(OC)c1	inactive
O=C(NCC1CCCO1)C1CCN(S(=O)(=O)c2ccc(Br)cc2)CC1 (stereo not given)	inactive
C=CCN(C(=O)CSc1nc2c(sc3ccccc32)c(=O)n1CCN(CC)CC)c1ccccc1	inconclusive: 26.7 µM [inhibitor, partial curve, poor fit]
Cc1noc(C)c1NC(=O)N(C)C[C@H]1Oc2ccc(NS(=O)(=O)c3cccs3)cc2C(=O)N([C@H](C)CO)C[C@@H]1C	inactive
CC1(C)Cc2c(sc(NC(=O)COc3ccc(Cl)cc3)c2C(N)=O)C(C)(C)N1	inconclusive: 8.91 µM [inhibitor, partial curve, poor fit]
CCCOc1ccc(N2C(=O)CC(N(Cc3ccccc3)N=O)C2=O)cc1 (stereo not given)	inactive
N#CCn1c(CCl)nc2ccccc2c1=O	inconclusive: 5.32 µM [inhibitor, single point]
C=CCn1c(SCCN)nnc1-c1cccc(S(=O)(=O)N2CCOCC2)c1	inactive
CCC(C)NS(=O)(=O)c1ccc(NC(=O)C(Sc2ccccc2)c2ccccc2)cc1 (stereo not given)	inconclusive: 25.1 µM [inhibitor, single point]
CCOc1cc(/C=N/NC(N)=S)cc(Br)c1OCc1ccccc1C	inconclusive: 8.91 µM [inhibitor, partial curve, poor fit]
CCOc1cccc(/C=N/NC(=O)C2CCCC2)c1O	inconclusive: 14.1 µM [inhibitor, partial curve]
Cc1cc(NC(=O)COC(=O)C(Nc2ccc(C(F)(F)F)cc2Cl)C(C)C)no1 (stereo not given)	inconclusive: 39.8 µM [inhibitor, single point]
O=C(NCc1ccco1)c1sc(=S)n2c1[nH]c(=O)c1ccccc12	inconclusive: 39.8 µM [inhibitor, single point]

SMILES	Potency
O=C(Nc1cccc(S(=O)(=O)N2CCCCC2)c1)c1ccc(S(=O)(=O)C(F)F)cc1	inconclusive: 18.9 µM [inhibitor, partial curve, poor fit]
COc1ccc(N2CCN(S(=O)(=O)CCNC(=O)COc3ccccc3OC)CC2)cc1	inactive
O=C(NNC(=O)c1ccccc1O)c1ccc(Cl)c(S(=O)(=O)N2CCCCC2)c1	inconclusive: 28.2 µM [inhibitor, single point]
CCOC(=O)C1=CN(Cc2ccco2)S(=O)(=O)NC1c1ccc(F)c(Cl)c1 (stereo not given)	inactive
CC(C)COC(=O)n1c(=O)oc2cc(S(=O)(=O)N3CCCCC3)ccc21	inactive
CCN(CC)CCCCNc1ncc2c(n1)N(C)C(=O)N(c1c(Cl)c(OC)cc(OC)c1Cl)C2	inconclusive: 24.3 µM [inhibitor, partial curve]
Cc1ccccc1C(=O)N1CCC(C(=O)Nc2cccc(S(=O)(=O)N3CCCCC3)c2)CC1	inconclusive: 39.8 µM [inhibitor, partial curve, poor fit]
O=C(CSc1ccc(Cl)cc1)Nc1ccc(NC(=O)c2ccco2)cc1	inconclusive: 17.8 µM [inhibitor, single point]
CCn1c2ccccc2c2cc(/C=N/NC(=O)c3cccc(C)c3)ccc21	inconclusive: 3.55 µM [inhibitor, full curve, poor fit]
Cc1ccc2c(c1)c1c(n2CC(O)Cn2c(C)nc3ccccc32)/C(=N\O)CCC1 (stereo not given)	inactive
Cc1cc(C)c(C(=O)N2CCCC(N3CCN(c4cccc(C(F)(F)F)c4)CC3)C2)o1 (stereo not given)	inconclusive: 20 µM [inhibitor, partial curve]
COc1ccc(OCC(O)CNS(=O)(=O)c2cccc(Cl)c2)cc1 (stereo not given)	inactive
O=C(Cc1cccc2ccccc12)Nc1ccc(-c2cc3ccccc3oc2=O)cc1	inconclusive: 1.41 µM [inhibitor, full curve]
COc1cc(=C2C=c3ccccc3=N2)[nH]c1=Cc1[nH]c(C)cc1C	inconclusive: 0.306 µM [inhibitor, full curve]
Cc1ccc(NS(=O)(=O)c2ccc3[nH]c4c(c3c2)CCCC4)cc1N(C)C	inconclusive: 39.8 µM [inhibitor, single point]
CC(C)CC(COCc1cccc(C(F)(F)F)c1)N1CCN(C(=O)c2cccc(C(F)(F)F)c2)CCC1=O (stereo not given)	inconclusive: 39.8 µM [inhibitor, single point]
C=CCNC(=S)Nc1sc2c(c1C(=O)OCC)CC(C)(CC)OC2 (stereo not given)	inactive
CCn1c(/C=C/Nc2ccccc2)[n+](CC)c2cc(Cl)c(Cl)cc21	inconclusive: 28.2 µM [inhibitor, partial curve, poor fit]
C=CCC[C@@H](Cc1ccc(F)cc1)C(=O)OC[C@@H](NC(=O)[C@@H](CC=C)CC(=O)N[C@@H](CO)Cc1ccccc1)C(C)(C)C	inconclusive: 39.8 µM [inhibitor, single point]
O=C1OC(c2ccccc2)(c2ccccc2)c2ccccc21	inactive
O=C1C(Cl)=C(NCCN2CCOCC2)C(=O)c2ncccc21	active: 9.68 µM
O=C(Nc1ncc([N+](=O)[O-])s1)c1ccc2c(c1)OCO2	active: 2.24 µM

SMILES	Potency
N=c1c2c(-c3ccccc3)c(-c3ccccc3)n(Cc3ccccc3)c2ncn1CCCO	inconclusive: 20 µM [inhibitor, partial curve]
COc1ccc(-c2oc3c(CC=C(C)C)c(O)cc(O)c3c(=O)c2O)cc1	inconclusive: 27.3 µM [inhibitor, partial curve, poor fit]
CCC(=O)N1CCc2cc(Br)cc(S(=O)(=O)N3CCN(c4ccccc4OC)CC3)c21	inactive
COC(=O)CSC1=NS(=O)(=O)c2ccccc21	inconclusive: 20 µM [inhibitor, partial curve, poor fit]
CCN(CC)S(=O)(=O)c1cccc(NC(=O)CNc2cccc(S(=O)(=O)N3CCCC3)c2)c1	inconclusive: 6.31 µM [inhibitor, partial curve, poor fit]
COc1cccc(CNc2nc3cc(-c4cscc4C)sc3c(=O)n2C)c1	inconclusive: 28.2 µM [inhibitor, single point]
COc1ccc(NC(=O)c2cc3c(s2)CCC(C)C3)cc1S(=O)(=O)N1CCOCC1 (stereo not given)	inconclusive: 25.1 µM [inhibitor, partial curve, poor fit]
O=C(NCCN1CCOCC1)c1cc(-c2ccc(Cl)cc2)on1	inconclusive: 17.8 µM [inhibitor, partial curve, poor fit]
COC(=O)C(NC(=O)CCc1c(C)nc2c(-c3ccccc3)c(C)nn2c1C)C(C)C (stereo not given)	inconclusive: 31.6 µM [inhibitor, partial curve, poor fit]
Oc1cccc(-c2nc3c4c(ncn3n2)-c2ccccc2CC42CCCC2)c1	inconclusive: 39.8 µM [inhibitor, single point]
CC(C)=CCC[C@H](C)CC1Cc2[nH]c(=S)[nH]c(=O)c2C(c2ccc(Cl)cc2)O1 (stereo not given in full)	inconclusive: 39.8 µM [inhibitor, single point]
CCS(=O)(=O)N1CCN(c2ccnc3cc(Cl)ccc23)CC1	inconclusive: 42.3 µM [inhibitor, partial curve, poor fit]
O=c1c2ccccc2sn1-c1ccc(Cl)cc1Cl	inconclusive: 39.8 µM [inhibitor, single point]
O=c1[nH]c(=O)n(Cc2ccco2)c2c1C(C(F)(F)F)(C(F)(F)F)N=C(c1ccc(F)cc1)N2	inconclusive: 2.51 µM [inhibitor, partial curve, poor fit]
COc1ccc(-c2cc(-c3ccccc3)c(C#N)c(S(C)(=O)=O)n2)cc1	inconclusive: 39.8 µM [inhibitor, single point]
CCCCc1c(-c2ccccc2OC)ncn1Cc1ccc(Cl)cc1	inconclusive: 39.8 µM [inhibitor, single point]
CCN(CCNC(=O)Nc1ccc(Cl)cc1)c1ccccc1	inconclusive: 28.2 µM [inhibitor, partial curve, poor fit]
Cc1cc(NC(=O)N(C)CCc2c(C)nn(C)c2C)ccc1Br	inactive
Cc1ccc2c(=O)cc(C(=O)N(Cc3ccc(N(C)C)cc3)C3CCS(=O)(=O)C3)oc2c1 (stereo not given)	inactive
C[C@@H](O)CNC(=O)c1[nH]cnc1C(=O)Nc1ccc(CNC(=O)OC(C)(C)C)cc1	inactive
CCOc1cc(/C=C2/C(=N)N3C=CSC3=NC2=O)ccc1OCCCOc1ccccc1C	inconclusive: 35.5 µM [inhibitor, single point]
